According to PubChem BioAssay AID485344 (National Center for Advancing Translational Sciences (NCATS), 2010):
In all, about 340,000 compounds went through this assay and about 6,900 (2%) were called active. No stated cut-off is given here; in the data, active means inhibition above about 30%; inactive means below that, where a call was filed. The list shows a part of the results, in another mix than the full data. Entries without a call were filed so in the source.

Target: D(2) dopamine receptor (Homo sapiens) (UniProt P14416)
Experiment: HTS Assay for Allosteric Antagonists of the Human D2 Dopamine Receptor: Primary Screen for Antagonists; further: 0% is about no effect
Details: HEK293 TREx D2 cells, calcium flux, dopamine EC80; at 10 µM; stronger effect = higher value
Procedure, shortened: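 Dopamine at EC80 is the agonist stimulus; test compounds precede it by 180 s. Calcium flux read kinetically in a force-coupled, inducible HEK293 T-REx D2 cell line.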

UniProt P14416, sequence (P14416 whole entry, looked up): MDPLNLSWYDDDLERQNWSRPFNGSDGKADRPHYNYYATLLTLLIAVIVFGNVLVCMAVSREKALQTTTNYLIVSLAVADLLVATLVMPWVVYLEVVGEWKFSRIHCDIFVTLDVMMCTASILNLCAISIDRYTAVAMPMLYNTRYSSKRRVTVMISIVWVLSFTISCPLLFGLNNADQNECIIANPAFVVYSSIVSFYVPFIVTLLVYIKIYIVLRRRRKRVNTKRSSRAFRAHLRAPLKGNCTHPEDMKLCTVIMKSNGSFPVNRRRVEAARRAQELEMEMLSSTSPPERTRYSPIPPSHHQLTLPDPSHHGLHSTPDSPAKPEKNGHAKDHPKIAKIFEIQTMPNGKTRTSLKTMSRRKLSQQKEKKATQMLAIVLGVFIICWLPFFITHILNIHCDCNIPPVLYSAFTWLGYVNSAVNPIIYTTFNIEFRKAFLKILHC

Row | SMILES | inhibition
1 | COc1ccc(-c2csc3nc(-c4ccc(F)cc4)oc(=O)c23)cc1OC | 10.6%
2 | O=C(c1cccc(C(=O)N(c2ccccn2)C2CCCCC2)c1)N(c1ccccn1)C1CCCCC1 | active: 62.1%
3 | Cc1cccc(C)c1NC(=O)CCS(=O)(=O)c1ccc2c(c1)n(C)c(=O)c(=O)n2C | -7.37%
4 | Cc1ccc(-c2noc(CSc3nnc(C)n3-c3ccc(F)cc3)n2)cc1 | 0.675%
5 | Cc1nnc2n1N=C(c1ccc(OC(F)F)cc1)C(C)S2 (stereo unspecified) | active: 56.3%
6 | Cc1ccc(CN2CCc3nc(N4CCN(c5ccccc5F)CC4)ncc3C2)s1 | -6.56%
7 | Cc1ccc2oc(=O)c3cc(C(=O)NCc4ccc(Cl)cc4)sc3c2c1 | -8.7%
8 | O=C(Nc1nc2ccccc2n1CCN1CCCCC1)C1CCCCC1 | active: 41.6%
9 | Cc1ccc(NC(=O)C2CCCN2S(=O)(=O)c2cccc3nsnc23)c(Br)c1 (stereo unspecified) | -9.52%
10 | O=C(NCc1ccccc1F)c1cc2ccccn2n1 | -0.221%
11 | CCOc1cccc(OCCOCCN(C)Cc2ccccc2)c1 | active: 30.4%
12 | CCN(CC)C(=O)Cn1c(=O)n(CCCCCC(=O)Nc2ccccc2)c(=O)c2sccc21 | 1.71%
13 | COC(=O)c1ccccc1NC(=O)Cn1c(=O)cc(-c2ccccc2)c2c(C)nn(C)c21 | -10.3%
14 | CCOC(=O)c1sc2ncn(CC(=O)Nc3cc(C)cc(C)c3)c(=O)c2c1C | -1.76%
15 | Cc1ccc(C)c(Nc2nn3c(=O)c4ccc(C(=O)N(C)Cc5ccccc5)cc4nc3s2)c1 | -8.88%
16 | Cc1ccccc1C(=O)Nc1cccc(C(=O)OCc2cc(=O)n3c(C)csc3n2)c1 | -6.94%
17 | COc1ccc(CNC(=O)c2ccc(NC(=O)N3CCSc4ncccc43)cc2)c(OC)c1 | 5.73%
18 | Cc1nn(Cc2ccccc2Cl)c2sc(C(=O)Nc3nccs3)cc12 | active: 38.4%
19 | CCOc1ccc2oc(=O)cc(CN3CCN(C(=O)c4cccc(Cl)c4)CC3)c2c1 | 8.23%
20 | COc1ccc(NC(=O)c2ncoc2-c2ccco2)cc1Cl | -1.69%
21 | CC(CNC(=O)c1ccc2nc(CCc3ccccc3)oc2c1)c1ccccc1 (stereo unspecified) | 16.1%

Row | SMILES | inhibition
22 | CCOC(=O)c1cccc(NC(=O)C2CCN(S(=O)(=O)c3c(C)noc3/C=C/c3ccc(C)cc3)CC2)c1 | 20.2%
23 | COc1cc(NC(=O)c2nc(-c3ccc(Cl)cc3)n3c2CCCCC3)cc(OC)c1OC | -12.5%
24 | COc1ccc(CNC(=O)c2cc(C3CC3)nc3c2c(C)nn3-c2cccc(Cl)c2C)cc1 | 8.88%
25 | CCn1c(=O)n(-c2ccc3c(c2)OCO3)c2nc(-c3cc(OC)ccc3OC)nc(C(N)=O)c21 | 14.9%
26 | COc1ccc(CNC(=O)Cn2ccc3cc(S(=O)(=O)N4CCCC4)ccc32)c(OC)c1 | -0.934%
27 | Cc1cccc(C(=O)Nc2ccc3nc(SCC(=O)N4CCc5ccccc54)sc3c2)c1 | -6.91%
28 | COC(=O)c1ccccc1NC(=O)c1sc2nc(C)cc(C)c2c1NC(=O)c1ccccc1Cl | 6.23%
29 | Cc1cc(/C=C(\C#N)C(=O)Nc2ccccc2)c(C)n1-c1ccc(F)cc1 | -22.9%
30 | COc1ccc(NC(=O)c2cc(C(C)=O)n3ccccc23)cc1Cl | 5.76%
31 | COc1ccc2c(CNCc3cccs3)c(C(=O)O)n(Cc3cccc(F)c3)c2c1 | 2.1%
32 | Cc1ccc(C(=O)Nc2cccc(O)c2)cc1S(=O)(=O)N1CCCCCC1 | -24%
33 | CCN(CC)CCCNC(=O)c1cn(CC)c2ccc(S(=O)(=O)N3CCc4ccccc4C3)cc2c1=O | 15.6%
34 | CCCC(=O)Nc1ccc2oc(-c3cncc(Br)c3)nc2c1 | active: 39%
35 | O=S(=O)(c1ccccc1)c1nc(-c2ccc(Cl)cc2Cl)oc1N1CCCCC1 | 0.905%
36 | Cc1ccc(CN2CCN(C3CCN(C(=O)c4ccccc4)CC3)C(=O)C2=O)cc1 | 4.3%
37 | COc1ccc(C)cc1NC(=O)Cn1c(=O)cc(C)c2c(C)nn(C)c21 | 5.75%
38 | Cc1nc(-c2ccc(Cl)cc2)sc1CCNC(=O)Cc1ccc(F)cc1 | 6.32%
39 | O=C(CNC(=O)c1ccccc1F)OCc1cc(=O)n2ccsc2n1 | -2.1%
40 | CCN(CC)C(=O)Cn1c(=O)n(-c2ccc(OC)cc2OC)c(=O)c2c(C)c(C(=O)N(CC)CC)sc21 | -24.2%
41 | COc1ccc(NC(=O)c2c(-c3ccc(C)cc3)nnc3ccccc23)cc1Cl | 4.65%
42 | COc1ccccc1C(=O)Nc1nnc(SCc2cc(=O)c3cc(Cl)ccc3[nH]2)s1 | -5.17%

Row | SMILES | inhibition
43 | COc1ccc(OC)c(NC(=O)Cn2ccc3ccccc3c2=O)c1 | -7.64%
44 | Cc1ccc(C)c(N2CCN(C(=O)C3CCCN(S(=O)(=O)c4cccc5nsnc45)C3)CC2)c1 (stereo unspecified) | 10.8%
45 | COc1cccc(CNC(=O)c2ccc3c(c2)nnn3C2CCCC2)c1 | 2.75%
46 | Cc1ccc(N(CC(=O)NCc2ccc(F)cc2)S(=O)(=O)c2c(C)nn(C)c2C)cc1 | -3.44%
47 | CCCCSCCCNC(=O)c1cn(C)c2ccc(S(=O)(=O)N3CCCCC3)cc2c1=O | -15.9%
48 | Cc1ccc(-n2cc(-c3ccccc3)nc2S(=O)(=O)CC(=O)Nc2ccc(F)cc2)cc1 | 13.5%
49 | COc1ccc(-n2nc(C(=O)Nc3ccc(C)cn3)c3c4ccccc4n(C)c3c2=O)cc1 | 5.39%
50 | CNS(=O)(=O)c1cn(CC(=O)Nc2cccc(OC)c2)cc1S(=O)(=O)NC | -0.683%
51 | Cc1c(Cl)cccc1NC(=O)c1noc2c1CCCC2 | 15.4%
52 | Cc1ccc(NC(=O)CSc2ncn[nH]2)cc1C | -13.2%
53 | CCOc1ccccc1NC(=O)CCc1c(C)nn(-c2ccc(N3CCOCC3)nn2)c1C | -2.49%
54 | CCOC(=O)Cn1c(=O)n(CC2CCCO2)c2nc(-c3cccc(C)c3)nc(C(N)=O)c21 (stereo unspecified) | -12.4%
55 | COC(=O)c1ccc(-n2c(CCC(=O)O)ccc2-c2ccc(C)cc2)cc1 | 8.53%
56 | COc1ccccc1OC(C)C(=O)Nc1c(C(=O)c2ccc(Cl)cc2)oc2ccccc12 (stereo unspecified) | -4.32%
57 | Cn1c(=O)oc2cc(S(=O)(=O)NC(Cc3ccccc3)C(=O)NCc3ccc(F)cc3)ccc21 (stereo unspecified) | 7.07%
58 | Cc1ccc(C)c(N2CCN(Cc3nnc(-c4ccc5c(c4)OCO5)o3)CC2)c1 | 8.51%
59 | CCn1c(C)c(C)c2cc(C(=O)NCCCN3CCCCC3)ccc21 | -24.1%
60 | CCC(=O)N1c2ccccc2CC1C(=O)NCCN1CCN(c2cccc(C(F)(F)F)c2)CC1 (stereo unspecified) | -10%
61 | CCOc1ccc(CNS(=O)(=O)c2ccc3[nH]c(=O)ccc3c2)cc1 | -12.3%
